# Experimental data from PubChem BioAssay AID1476 (National Center for Advancing Translational Sciences (NCATS), 2009).
# “And” between values parts separate entries of the source, which are not always exact repeats. Equal entries are not always repeated. Out of some 200,000 compounds screened, about 4,500 (2.2%) were called active. Inconclusive results, whose numbers are uncertain, are shown with a selection of clear calls. Calls follow the shape of the dose curve; as a rule, active = well fitted inhibition curve with a large enough effect; inconclusive = small, poorly fitted or top-dose-only effect, or effect the other way; inactive = flat fitted curve, though single readings scatter. A potency beside an inconclusive call is a rough fit, not a confirmed value.
# Molecular target: Cruzipain (Trypanosoma cruzi) (UniProt P25779)
# Assay: qHTS Assay for Promiscuous and Specific Inhibitors of Cruzain (without detergent); also: nearly all actives have a fitted effect of over 40% in size;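 as to max response, negative = inhibition: plate controls were enzyme without inhibitor for no effect and buffer without enzyme for full effect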
# Details: purified cruzain, Z-FR-AMC fluorescence, no detergent
# Method in brief: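 Detergent-free condition (0.00005% Triton X-100) in acetate buffer pH 5.5 with DTT. 1.5 nM enzyme and compound were pre-mixed 15 min, then 2 uM Z-FR-AMC substrate added; reaction progress from fluorescence change between first and third reads (60 s).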
# Potency is read from the fitted curve at half-maximal effect; tags tell the direction and shape of the fitted curve.
# Chain of UniProt P25779 (P25779 whole entry, looked up): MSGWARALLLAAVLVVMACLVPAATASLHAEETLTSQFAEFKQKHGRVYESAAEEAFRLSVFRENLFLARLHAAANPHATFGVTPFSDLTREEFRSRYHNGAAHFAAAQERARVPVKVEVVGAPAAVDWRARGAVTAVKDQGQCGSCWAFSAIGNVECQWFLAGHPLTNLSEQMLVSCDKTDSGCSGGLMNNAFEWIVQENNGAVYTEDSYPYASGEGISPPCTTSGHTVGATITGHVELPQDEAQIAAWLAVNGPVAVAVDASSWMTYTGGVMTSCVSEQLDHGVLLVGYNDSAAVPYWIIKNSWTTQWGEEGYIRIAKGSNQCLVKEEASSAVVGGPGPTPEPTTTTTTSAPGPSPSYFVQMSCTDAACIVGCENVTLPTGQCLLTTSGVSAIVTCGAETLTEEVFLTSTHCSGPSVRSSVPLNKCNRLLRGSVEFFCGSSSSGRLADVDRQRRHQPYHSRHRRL
SMILES,Potency,"max response, negative = inhibition"
Nc1c(C(=O)NCc2ccco2)sc2nc(N3CCOCC3)c3c(c12)CCCC3,"inconclusive: 31.6 µM [activator, single point]",
O=C1C2=C(Nc3ccccc3SC2c2ccc(C(F)(F)F)cc2)c2ccccc21 (stereo not given),active: 20 µM,
C[C@H](Oc1ccc(Oc2cnc3ccc(Cl)cc3n2)cc1)C(=O)O,,inactive: 0.751%
COc1ccc(C(C(=O)NC2CCCCC2)N(C(=O)CCl)c2ccc(Cl)cc2)cc1 (stereo not given),"inconclusive: 31.6 µM [inhibitor, single point]",
COc1ccc(CC(=O)Nc2c(C(=O)N3CCN(c4ccccc4F)CC3)oc3ccccc23)cc1OC,"inconclusive: 31.6 µM [activator, single point]",
O=C1N/C(=C/c2cccn2-c2ccccc2)C(=O)N1Cc1ccc(F)cc1,active: 12.6 µM,
CCCCCCCc1cc2c(cn1)=C(OC)C(C)(OC(C)=O)C(=O)C=2Cl (stereo not given),,inactive: -8.74%
COc1cc(C(=O)N2CCN(S(=O)(=O)c3ccc(C)cc3)CC2)ccc1OCc1c(C)noc1C,"inconclusive: 31.6 µM [activator, partial curve]",
Cc1ccc(S(=O)(=O)NCCc2nnc3ccc(SCc4cccc(F)c4)nn23)cc1,"inconclusive: 20 µM [activator, single point]",
N#Cc1nc(-c2ccc(OCc3ccccc3)cc2)oc1NCc1cccnc1,"inconclusive: 25.1 µM [activator, single point]",
COc1ccc2c(c1)OC13CCCCC1C2C(C(=O)c1ccccc1)C(=O)N3 (stereo not given),"inconclusive: 31.6 µM [inhibitor, single point]",
Cc1ccc(NC(=O)CSc2nnc(C)s2)c(C)c1,,inactive: -12.2%
Cc1cccc(COCC(Cc2ccccc2)N2CCN(C(=O)c3cccc(C)c3)CCC2=O)c1 (stereo not given),"inconclusive: 39.8 µM [activator, single point]",
COc1cccc(Nc2nc(-c3cccs3)nc3ccccc23)c1,"inconclusive: 39.8 µM [inhibitor, single point]",
COc1ccc(OC)c(C(=O)CN2C(=O)N(c3cc(C)cc(C)c3)S(=O)(=O)c3ccccc32)c1,"inconclusive: 39.8 µM [inhibitor, single point]",
CCN1CCN(c2oc(-c3ccc(COc4ccc(OC)cc4)o3)nc2C#N)CC1,,inactive: -3.78%
CCc1ccc(C(=O)COC(=O)C(CCSC)NC(=O)c2ccccc2)cc1 (stereo not given),,inactive: -11.9%
COc1ccc(Oc2ncc3nc(-c4ccc(OC)cc4)c(=O)n(C4CC4)c3n2)cc1,,inactive: 0.227%
Clc1ccc(-c2ccc(CNCCSc3nnnn3-c3ccccc3)o2)cc1,"inconclusive: 31.6 µM [activator, single point]",
COc1ccc(C)cc1NC(=O)CSc1nc(=O)n(Cc2cccnc2)c2c1CCC2,"inconclusive: 39.8 µM [activator, single point]",
O=C(NN1c2ccccc2CCc2ccccc21)c1ccccc1Br,"inconclusive: 31.6 µM [inhibitor, single point]",
COc1ccccc1NC(=O)C(C)NS(=O)(=O)c1ccccc1 (stereo not given),"inconclusive: 20 µM [inhibitor, partial curve, poor fit]",

SMILES,Potency,"max response, negative = inhibition"
Cc1ccnc(SCC(=O)Nc2sc3c(c2C#N)CCCC3)n1,"inconclusive: 25.1 µM [activator, single point]",
CCOC(=O)c1c(NC(=O)CSc2nnc(C)c(=O)[nH]2)sc2c1CCC2,"inconclusive: 39.8 µM [activator, single point]",
COc1ccc(C(=O)/C=C/Nc2ccc(S(=O)(=O)Nc3ncccn3)cc2)cc1,"inconclusive: 39.8 µM [inhibitor, single point]",
CCc1nnc(NC(=O)c2ccc(S(=O)(=O)N3CCc4ccccc4C3)cc2)s1,"inconclusive: 31.6 µM [inhibitor, single point]",
Cc1ccc(C(=O)CN(C(=O)c2ccc(Cl)cc2)N2C(=O)c3ccccc3C2=O)cc1,"inconclusive: 39.8 µM [inhibitor, single point]",
COc1ccc(COc2cc(-c3cccc(OC)c3)nc3ccc(N)cc23)cc1,"inconclusive: 31.6 µM [inhibitor, single point] and inconclusive: 44.7 µM [inhibitor, single point]",
CCOC(=O)c1nn(-c2ccccc2C)c2nc(-c3ccc(Cl)cc3)c(C#N)c(=O)n12,"inconclusive: 39.8 µM [inhibitor, single point]",
CCCCCCCCC,,inactive: 4.73%
CC1=CC(C)(C)n2c(O)c(N=NC(N)=S)c3c(C)ccc1c32,active: 20 µM,
Cc1ccc(NC(=O)c2nc(S(C)(=O)=O)ncc2N(Cc2cccc(F)c2)Cc2ccco2)cc1C,"inconclusive: 15.8 µM [inhibitor, partial curve, poor fit]",
COc1nccnc1NS(=O)(=O)c1ccc(N=Cc2c(C)[nH]n(-c3ccc(Cl)cc3)c2=O)cc1,"inconclusive: 25.1 µM [activator, partial curve]",
Cc1cccc(C)c1NC(=O)COC(=O)c1c2c(nc3ccccc13)/C(=C\c1ccc3c(c1)OCO3)CCC2,active: 7.94 µM,
C=CCNc1ncnc2c1[nH]c1ccccc12,"inconclusive: 12.6 µM [inhibitor, partial curve, poor fit]",
Cc1ccc(CNC(=O)c2oc3ccc(S(=O)(=O)N4CCCC(C)C4)cc3c2C)cc1 (stereo not given),,inactive: -3.4%
COc1cc(-c2ccno2)ccc1S(=O)(=O)N1CCN(c2cccc(Cl)c2)CC1,"inconclusive: 39.8 µM [inhibitor, single point]",
CCc1n[nH]c2c1/C(=N\O)CC(c1ccccc1)C2 (stereo not given),,inactive: 7.91%
COc1ccc(N2CCN(C(=O)C(C)(C)Oc3ccc(Cl)cc3)CC2)cc1,"inconclusive: 39.8 µM [activator, single point]",
Cc1ccc(Cn2c(C)c3cnn(CC(=O)N4CCC5(CC4)OCCO5)c(=O)c3c2C)cc1,"inconclusive: 31.6 µM [activator, single point]",
COCCCNC(=O)c1cc2c(=O)n3cc(C)ccc3nc2nc1NCC1CCCO1 (stereo not given),"inconclusive: 39.8 µM [inhibitor, single point]",
COc1ccccc1/C=N/NC(=O)c1ccccc1NS(=O)(=O)c1ccc(C)cc1,,inactive: -0.584%
Cc1cccc(COCC(CC(C)C)N2CCN(C(=O)c3ccc(C(F)(F)F)cc3)CCC2=O)c1 (stereo not given),"inconclusive: 25.1 µM [activator, partial curve]",
O=C(/C=C/Nc1ccccc1)c1cnc(-c2ccccc2)s1,active: 12.6 µM,

SMILES,Potency,"max response, negative = inhibition"
CC(C)CC(=O)Nc1ccc(C(=O)NNC(=O)C(c2ccccc2)c2ccccc2)cc1,active: 25.1 µM,
O=C(Nc1ccc(F)cc1)C1CCN(c2nc3ccccc3nc2C(F)(F)F)CC1,,inactive: 6.19%
COc1ccc(-c2noc(CC(=O)N(C)c3ccccc3F)n2)cc1,,inactive: -13.2%
Cc1c(Cc2ccccc2)c(=O)oc2cc(OC(=O)c3ccccc3)ccc12,"inconclusive: 31.6 µM [inhibitor, single point]",
COc1cc(NC(=O)Cn2c(=O)n(Cc3ccccc3)c(=O)c3oc4ccccc4c32)cc(OC)c1,"inconclusive: 31.6 µM [inhibitor, single point]",
CCOC(=O)c1c(S(=O)(=O)N2CCC(C(=O)Nc3ccc(C)cn3)CC2)c(C)n(C)c1C,,inactive: -14.5%
COc1ccc(CNC(=O)c2ccc3c(c2)N=C(C)c2c(C)ccc(C)c2S3)cc1,"inconclusive: 39.8 µM [inhibitor, single point]",
CC1(c2cccc([N+](=O)[O-])c2)CC(C)(C)N(C(=O)c2ccccc2)c2ccccc21 (stereo not given),,inactive: -29.1%
CC(C)c1ccc(-c2c(C#N)c(N)nc(SCC(=O)N3CCCCC3)c2C#N)cc1,active: 25.1 µM,
COC(=O)c1ccc(C2CC(=O)Nc3c2c(C)nn3-c2nc(C)cc(C)n2)cc1 (stereo not given),,inactive: 11.1%
Cc1cccc(NC(=O)N[C@@H]2N=C(c3ccccc3)c3ccccc3N(CC(=O)c3ccccc3C)C2=O)c1,active: 31.6 µM,
CC1CCCCN1C(=O)CSc1nc2ccccc2nc1Cc1ccccc1 (stereo not given),,inactive: 0.175%
COc1ccc(-n2cc(C(=O)NCCc3ccc(C)cc3)c3ccccc3c2=O)cc1,active: 25.1 µM,
O=c1ccc2cc(S(=O)(=O)N3CCN(c4cc(Cl)ccc4Cl)CC3)ccc2o1,"inconclusive: 31.6 µM [inhibitor, single point]",
Cc1nc(N2CCOCC2)c2c(C(=O)N3CCN(c4cc(Cl)ccc4C)CC3)c(C)oc2n1,"inconclusive: 39.8 µM [activator, single point]",
CC1(C(=O)Nc2cccc(C(F)(F)F)c2)Cc2ccccc2C(=O)O1 (stereo not given),,inactive: -15.5%
Cc1ccc(S(=O)(=O)Nc2cc(C(F)(F)F)ccc2N2CCOCC2)c(C)c1,"inconclusive: 7.94 µM [activator, full curve, poor fit]",
O=C(CSc1nc(-c2ccc(Cl)cc2)cs1)Nc1cccc([N+](=O)[O-])c1,"inconclusive: 39.8 µM [inhibitor, single point]",
COc1ccc(-c2cc3c(=O)n(CC(=O)Nc4ccccc4C(F)(F)F)ccn3n2)cc1OC,"inconclusive: 6.31 µM [activator, single point]",
O=C(CSc1ncnc2ccccc12)Nc1cc(S(=O)(=O)N2CCCCC2)ccc1Cl,"inconclusive: 31.6 µM [inhibitor, single point]",
O=C(Nc1ccc2c(c1)OCO2)C1CCCN(c2nc3ccccc3s2)C1 (stereo not given),"inconclusive: 31.6 µM [inhibitor, single point]",
